{"source": "the supplement of paper PMC8728848", "binders": {"B1": {"name": "BC2L-A (Burkholderia cenocepacia), Q1BKJ8_BURCA (protein)", "chain": "ADSQTSSNRAGEFSIPPNTDFRAIFFANAAEQQHIKLFIGDSQEPAAYHKLTTRDGPREATLNSGNGKIRFEVSVNGKPSATDARLAPINGKKSDGSPFTVNFGIVVSEDGHDSDYNDGIVVLQWPIG"}}, "experiment_in_all_cases": "glycan array binding signal (z-score within array); higher = stronger binding", "details_in_all_cases": "glycan notation: IUPAC condensed, linker removed", "key": {"[1]": {"biological_target": "Gal(b1-4)Glc", "how_it_was_run": "(§1)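 The Consortium for Functional Glycomics database supplied 3228 glycan arrays, of which those lacking an available protein sequence were dropped. The binding signal, a within-array Z-score, was averaged across arrays of the same protein sequence and across linkers. Negative scores can be read as non-binding.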"}, "[2]": {"biological_target": "Gal(b1-4)Glc6S", "how_it_was_run": "as §1"}, "[3]": {"biological_target": "Gal(b1-4)GlcNAc", "how_it_was_run": "as §1"}, "[4]": {"biological_target": "Gal(b1-4)GlcNAc(a1-6)Gal(b1-4)GlcNAc", "how_it_was_run": "as §1"}, "[5]": {"biological_target": "Gal(b1-4)GlcNAc(b1-2)Man", "how_it_was_run": "as §1"}, "[6]": {"biological_target": "Gal(b1-4)GlcNAc(b1-2)Man(a1-3)Man(b1-4)GlcNAc(b1-4)GlcNAc", "how_it_was_run": "as §1"}, "[7]": {"biological_target": "Gal(b1-4)GlcNAc(b1-2)Man(a1-3)[Gal(b1-4)GlcNAc(b1-2)Man(a1-6)]Man(b1-4)GlcNAc(b1-4)GlcNAc", "how_it_was_run": "as §1"}, "[8]": {"biological_target": "Gal(b1-4)GlcNAc(b1-2)Man(a1-3)[Gal(b1-4)GlcNAc(b1-2)Man(a1-6)]Man(b1-4)GlcNAc(b1-4)[Fuc(a1-6)]GlcNAc", "how_it_was_run": "as §1"}, "[9]": {"biological_target": "Gal(b1-4)GlcNAc(b1-2)Man(a1-3)[Gal(b1-4)GlcNAc(b1-2)][GlcNAc(b1-4)]Man(b1-4)GlcNAc(b1-4)GlcNAc", "how_it_was_run": "as §1"}, "[10]": {"biological_target": "Gal(b1-4)GlcNAc(b1-2)Man(a1-3)[GlcNAc(b1-2)Man(a1-6)]Man(b1-4)GlcNAc(b1-4)GlcNAc", "how_it_was_run": "as §1"}, "[11]": {"biological_target": "Gal(b1-4)GlcNAc(b1-2)Man(a1-3)[Man(a1-6)]Man(b1-4)GlcNAc(b1-4)GlcNAc", "how_it_was_run": "as §1"}, "[12]": {"biological_target": "Gal(b1-4)GlcNAc(b1-2)Man(a1-6)Man(b1-4)GlcNAc(b1-4)GlcNAc", "how_it_was_run": "as §1"}, "[13]": {"biological_target": "Gal(b1-4)GlcNAc(b1-2)Man(a1-6)[GlcNAc(b1-2)Man(a1-3)]Man(b1-4)GlcNAc(b1-4)GlcNAc", "how_it_was_run": "as §1"}, "[14]": {"biological_target": "Gal(b1-4)GlcNAc(b1-2)Man(a1-6)[Man(a1-3)]Man(b1-4)GlcNAc(b1-4)GlcNAc", "how_it_was_run": "as §1"}, "[15]": {"biological_target": "Gal(b1-4)GlcNAc(b1-2)[Gal(b1-4)GlcNAc(b1-4)]Man(a1-3)[Gal(b1-4)GlcNAc(b1-2)Man(a1-6)]Man(b1-4)GlcNAc(b1-4)GlcNAc", "how_it_was_run": "as §1"}, "[16]": {"biological_target": "Gal(b1-4)GlcNAc(b1-2)[Gal(b1-4)GlcNAc(b1-4)]Man(a1-3)[Gal(b1-4)GlcNAc(b1-2)[Gal(b1-4)GlcNAc(b1-6)]Man(a1-6)]Man(b1-4)GlcNAc(b1-4)GlcNAc", "how_it_was_run": "as §1"}, "[17]": {"biological_target": "Gal(b1-4)GlcNAc(b1-2)[Gal(b1-4)GlcNAc(b1-4)]Man(a1-3)[GlcNAc(b1-4)][Gal(b1-4)GlcNAc(b1-2)Man(a1-6)]Man(b1-4)GlcNAc(b1-4)GlcNAc", "how_it_was_run": "as §1"}, "[18]": {"biological_target": "Gal(b1-4)GlcNAc(b1-2)[Gal(b1-4)GlcNAc(b1-4)]Man(a1-3)[GlcNAc(b1-4)][Gal(b1-4)GlcNAc(b1-2)[Gal(b1-4)GlcNAc(b1-6)]Man(a1-6)]Man(b1-4)GlcNAc(b1-4)GlcNAc", "how_it_was_run": "as §1"}, "[19]": {"biological_target": "Gal(b1-4)GlcNAc(b1-2)[Gal(b1-4)GlcNAc(b1-6)]Man(a1-6)[Gal(b1-4)GlcNAc(b1-2)Man(a1-3)]Man(b1-4)GlcNAc(b1-4)GlcNAc", "how_it_was_run": "as §1"}, "[20]": {"biological_target": "Gal(b1-4)GlcNAc(b1-2)[Gal(b1-4)GlcNAc(b1-6)]Man(a1-6)[GlcNAc(b1-4)][Gal(b1-4)GlcNAc(b1-2)Man(a1-3)]Man(b1-4)GlcNAc(b1-4)GlcNAc", "how_it_was_run": "as §1"}, "[21]": {"biological_target": "Gal(b1-4)GlcNAc(b1-3)Gal(b1-3)GlcNAc", "how_it_was_run": "as §1"}, "[22]": {"biological_target": "Gal(b1-4)GlcNAc(b1-3)Gal(b1-4)Glc", "how_it_was_run": "as §1"}, "[23]": {"biological_target": "Gal(b1-4)GlcNAc(b1-3)Gal(b1-4)GlcNAc", "how_it_was_run": "as §1"}, "[24]": {"biological_target": "Gal(b1-4)GlcNAc(b1-3)Gal(b1-4)GlcNAc(b1-3)Gal(b1-4)GlcNAc", "how_it_was_run": "as §1"}, "[25]": {"biological_target": "Gal(b1-4)GlcNAc(b1-3)Gal(b1-4)[Fuc(a1-3)GlcNAc(b1-6)]Gal(b1-4)Glc", "how_it_was_run": "as §1"}, "[26]": {"biological_target": "Gal(b1-4)GlcNAc(b1-3)Gal(b1-4)[Fuc(a1-3)]GlcNAc(b1-3)Gal(b1-4)[Fuc(a1-3)]GlcNAc", "how_it_was_run": "as §1"}, "[27]": {"biological_target": "Gal(b1-4)GlcNAc(b1-3)GalNAc", "how_it_was_run": "as §1"}, "[28]": {"biological_target": "Gal(b1-4)GlcNAc(b1-3)[Gal(b1-4)GlcNAc(b1-6)]Gal(b1-4)GlcNAc", "how_it_was_run": "as §1"}, "[29]": {"biological_target": "Gal(b1-4)GlcNAc(b1-3)[Gal(b1-4)GlcNAc(b1-6)]GalNAc", "how_it_was_run": "as §1"}, "[30]": {"biological_target": "Gal(b1-4)GlcNAc(b1-3)[GlcNAc(b1-6)]Gal(b1-4)GlcNAc", "how_it_was_run": "as §1"}, "[31]": {"biological_target": "Gal(b1-4)GlcNAc(b1-6)Gal(b1-4)GlcNAc", "how_it_was_run": "as §1"}, "[32]": {"biological_target": "Gal(b1-4)GlcNAc(b1-6)Gal(b1-4)GlcNAc(b1-6)GalNAc", "how_it_was_run": "as §1"}, "[33]": {"biological_target": "Gal(b1-4)GlcNAc(b1-6)GalNAc", "how_it_was_run": "as §1"}, "[34]": {"biological_target": "Gal(b1-4)GlcNAc(b1-6)[Gal(b1-3)]GalNAc", "how_it_was_run": "as §1"}, "[35]": {"biological_target": "Gal(b1-6)Gal", "how_it_was_run": "as §1"}, "[36]": {"biological_target": "Gal3S(b1-3)GalNAc", "how_it_was_run": "as §1"}, "[37]": {"biological_target": "Gal3S(b1-3)GlcNAc", "how_it_was_run": "as §1"}, "[38]": {"biological_target": "Gal3S(b1-3)[Fuc(a1-4)]GlcNAc", "how_it_was_run": "as §1"}, "[39]": {"biological_target": "Gal3S(b1-4)Glc", "how_it_was_run": "as §1"}, "[40]": {"biological_target": "Gal3S(b1-4)Glc6S", "how_it_was_run": "as §1"}, "[41]": {"biological_target": "Gal3S(b1-4)GlcNAc", "how_it_was_run": "as §1"}, "[42]": {"biological_target": "Gal3S(b1-4)GlcNAc6S", "how_it_was_run": "as §1"}, "[43]": {"biological_target": "Gal3S(b1-4)[Fuc(a1-3)]Glc", "how_it_was_run": "as §1"}, "[44]": {"biological_target": "Gal3S(b1-4)[Fuc(a1-3)]Glc6S", "how_it_was_run": "as §1"}, "[45]": {"biological_target": "Gal3S4S(b1-4)GlcNAc", "how_it_was_run": "as §1"}}, "note": "The other results are listed elsewhere or left out.", "data": [{"binder": "B1", "values": [{"measurement": "glycan array binding signal (z-score)", "setting": "[1]", "result": -0.159}, {"measurement": "glycan array binding signal (z-score)", "setting": "[2]", "result": -0.087}, {"measurement": "glycan array binding signal (z-score)", "setting": "[3]", "result": -0.109}, {"measurement": "glycan array binding signal (z-score)", "setting": "[4]", "result": -0.299}, {"measurement": "glycan array binding signal (z-score)", "setting": "[5]", "result": -0.216}, {"measurement": "glycan array binding signal (z-score)", "setting": "[6]", "result": -0.263}, {"measurement": "glycan array binding signal (z-score)", "setting": "[7]", "result": -0.226}, {"measurement": "glycan array binding signal (z-score)", "setting": "[8]", "result": -0.197}, {"measurement": "glycan array binding signal (z-score)", "setting": "[9]", "result": -0.08}, {"measurement": "glycan array binding signal (z-score)", "setting": "[10]", "result": -0.16}, {"measurement": "glycan array binding signal (z-score)", "setting": "[11]", "result": 2.13}, {"measurement": "glycan array binding signal (z-score)", "setting": "[12]", "result": -0.182}, {"measurement": "glycan array binding signal (z-score)", "setting": "[13]", "result": -0.216}, {"measurement": "glycan array binding signal (z-score)", "setting": "[14]", "result": 2.65}, {"measurement": "glycan array binding signal (z-score)", "setting": "[15]", "result": -0.144}, {"measurement": "glycan array binding signal (z-score)", "setting": "[16]", "result": -0.028}, {"measurement": "glycan array binding signal (z-score)", "setting": "[17]", "result": -0.219}, {"measurement": "glycan array binding signal (z-score)", "setting": "[18]", "result": -0.22}, {"measurement": "glycan array binding signal (z-score)", "setting": "[19]", "result": 0.336}, {"measurement": "glycan array binding signal (z-score)", "setting": "[20]", "result": -0.095}, {"measurement": "glycan array binding signal (z-score)", "setting": "[21]", "result": -0.299}, {"measurement": "glycan array binding signal (z-score)", "setting": "[22]", "result": -0.283}, {"measurement": "glycan array binding signal (z-score)", "setting": "[23]", "result": -0.284}, {"measurement": "glycan array binding signal (z-score)", "setting": "[24]", "result": -0.269}, {"measurement": "glycan array binding signal (z-score)", "setting": "[25]", "result": -0.219}, {"measurement": "glycan array binding signal (z-score)", "setting": "[26]", "result": -0.026}, {"measurement": "glycan array binding signal (z-score)", "setting": "[27]", "result": -0.271}, {"measurement": "glycan array binding signal (z-score)", "setting": "[28]", "result": -0.298}, {"measurement": "glycan array binding signal (z-score)", "setting": "[29]", "result": -0.223}, {"measurement": "glycan array binding signal (z-score)", "setting": "[30]", "result": -0.292}, {"measurement": "glycan array binding signal (z-score)", "setting": "[31]", "result": -0.3}, {"measurement": "glycan array binding signal (z-score)", "setting": "[32]", "result": -0.327}, {"measurement": "glycan array binding signal (z-score)", "setting": "[33]", "result": -0.255}, {"measurement": "glycan array binding signal (z-score)", "setting": "[34]", "result": -0.238}, {"measurement": "glycan array binding signal (z-score)", "setting": "[35]", "result": -0.22}, {"measurement": "glycan array binding signal (z-score)", "setting": "[36]", "result": -0.29}, {"measurement": "glycan array binding signal (z-score)", "setting": "[37]", "result": 0.002}, {"measurement": "glycan array binding signal (z-score)", "setting": "[38]", "result": 0.321}, {"measurement": "glycan array binding signal (z-score)", "setting": "[39]", "result": 0.214}, {"measurement": "glycan array binding signal (z-score)", "setting": "[40]", "result": -0.018}, {"measurement": "glycan array binding signal (z-score)", "setting": "[41]", "result": -0.245}, {"measurement": "glycan array binding signal (z-score)", "setting": "[42]", "result": -0.282}, {"measurement": "glycan array binding signal (z-score)", "setting": "[43]", "result": -0.211}, {"measurement": "glycan array binding signal (z-score)", "setting": "[44]", "result": -0.215}, {"measurement": "glycan array binding signal (z-score)", "setting": "[45]", "result": -0.296}]}]}
